{"source": "the supplement of paper PMC9446081", "note": "In all, about 39,000 compounds went through this assay and about 220 (0.56%) showed activity. The list shows a part of the results.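 Also: static incubation at 37 °C against the wild-type strain, values averaged over two biological replicates.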", "data": [{"system": "Escherichia coli K-12 BW25113", "assay": "relative growth (OD600 normalised to plate interquartile mean) (fraction); higher = less growth inhibition, active = 0.2 or less", "conditions": "50 µM; LB; incubation time: overnight (16-24 h)", "values": [{"smiles": "C[C@@H]1CN([C@@H](C)CO)C(=O)c2cc(NC(=O)c3ccccc3)ccc2O[C@@H](C)CCCCO[C@H]1CN(C)Cc1ccc(C(=O)O)cc1", "relative growth": "inactive: 0.995"}, {"smiles": "C[C@@H]1CN([C@H](C)CO)C(=O)c2cccc(NS(=O)(=O)c3ccccc3)c2O[C@@H]1CN(C)Cc1ccc(-c2ccccc2)cc1", "relative growth": "inactive: 1.01"}, {"smiles": "COCC#Cc1ccc([C@@H]2[C@H]3CN(C(=O)c4ccncc4)CC(=O)N3[C@H]2CO)cc1", "relative growth": "inactive: 0.94"}, {"smiles": "CN1N=C(N)c2cn([C@@H]3O[C@H](COP(=O)(O)O)[C@@H](O)[C@H]3O)c3ncnc1c23", "relative growth": "inactive: 0.949"}, {"smiles": "C[C@@H]1CCCCO[C@@H](CN(C)Cc2ccc3c(c2)OCO3)[C@@H](C)CN([C@@H](C)CO)C(=O)c2cc(NC(=O)Cc3ccccc3)ccc2O1", "relative growth": "inactive: 1.04"}, {"smiles": "C[C@@H]1CCCCO[C@@H](CN(C)S(=O)(=O)c2cn(C)cn2)[C@H](C)CN([C@H](C)CO)C(=O)c2cc(N(C)C)ccc2O1", "relative growth": "inactive: 1"}, {"smiles": "Cc1noc(C)c1S(=O)(=O)N(C)C[C@H]1OCCCC[C@@H](C)Oc2ccc(N(C)C)cc2C(=O)N([C@@H](C)CO)C[C@@H]1C", "relative growth": "inactive: 1"}, {"smiles": "CC(=O)Nc1ccc(CC(=O)O)cc1", "relative growth": "inactive: 1.17"}, {"smiles": "CCCC#Cc1cnc2c(c1)C(=O)N([C@H](C)CO)C[C@@H](C)[C@@H](CN(C)S(=O)(=O)c1cccc(OC)c1)O2", "relative growth": "inactive: 1.03"}, {"smiles": "CNCc1n[nH]c2c1CCC2", "relative growth": "inactive: 1.03"}, {"smiles": "COc1ccc([Si](C)(C)[C@@H]2[C@@H](CC(=O)N3Cc4ccccc4C[C@H]3CO)O[C@]3(C(=O)N(Cc4ccc(N5CCOC5=O)cc4)c4ccccc43)[C@H]2C)cc1", "relative growth": "inactive: 1.04"}, {"smiles": "C[C@@H]1CN([C@@H](C)CO)C(=O)c2c(c3ccccc3n2C)-c2ccccc2CO[C@H]1CN(C)Cc1ccccc1", "relative growth": "inactive: 0.994"}, {"smiles": "C[C@@H]1CN([C@@H](C)CO)C(=O)c2cc(NC(=O)Cc3ccccc3)ccc2O[C@@H]1CN(C)Cc1ccc(Cl)c(Cl)c1", "relative growth": "inactive: 1"}, {"smiles": "CC(CCC(=O)NCC(=O)O)C1CCC2C3C(O)CC4CC(O)CCC4(C)C3CC(O)C12C", "note": "(configuration not stated)", "relative growth": "inactive: 0.916"}, {"smiles": "Cc1[nH]c(=O)[nH]c(=O)c1S(=O)(=O)N1CCC[C@H](C(=O)NCCc2c[nH]c3ccc(F)cc23)C1", "relative growth": "inactive: 1.02"}, {"smiles": "Cc1nc2n(c(=O)c1CCN1CCC(c3noc4cc(F)ccc34)CC1)CCCC2", "relative growth": "inactive: 1.1"}, {"smiles": "C[C@H]1CCCCO[C@H](CN(C)Cc2ccccc2)[C@@H](C)CN([C@@H](C)CO)C(=O)c2cc(NS(=O)(=O)c3ccccc3)ccc2O1", "relative growth": "inactive: 0.997"}, {"smiles": "COc1ccc(S(=O)(=O)N(C)C[C@H]2OCCCC[C@H](C)Oc3ccc(NC(=O)c4ccccc4)cc3C(=O)N([C@@H](C)CO)C[C@H]2C)cc1", "relative growth": "inactive: 1.01"}, {"smiles": "C[C@H]1CN([C@@H](C)CO)C(=O)c2cc(/C=C/c3ccccc3)cnc2O[C@@H]1CN(C)C(=O)c1cnccn1", "relative growth": "inactive: 0.998"}, {"smiles": "Cc1ccc(S(=O)(=O)N(C)C[C@H]2OCCCC[C@H](C)Oc3ccc(NC(=O)CCC(F)(F)F)cc3C(=O)N([C@H](C)CO)C[C@@H]2C)cc1", "relative growth": "inactive: 1.04"}, {"smiles": "COc1cc(/C=C/C(=O)CC2=C[C@H](c3ccc(O)c(OC)c3)SC(NCc3ccco3)=N2)ccc1O", "relative growth": "inactive: 0.941"}, {"smiles": "COc1ccc(CN(C)C[C@@H]2OCCCC[C@@H](C)Oc3ccc(NC(=O)Nc4ccc(OC)cc4)cc3C(=O)N([C@@H](C)CO)C[C@H]2C)cc1", "relative growth": "inactive: 0.975"}, {"smiles": "C[C@@H]1CCCCO[C@@H](CN(C)C(=O)c2ccccc2)[C@H](C)CN([C@@H](C)CO)C(=O)c2cc(NC(=O)NC3CCCCC3)ccc2O1", "relative growth": "inactive: 0.998"}, {"smiles": "Cc1ccc(S(=O)(=O)N[C@H]2C=C[C@@H](CC(=O)NCCN3CCCCC3)O[C@@H]2CO)cc1", "relative growth": "inactive: 1"}, {"smiles": "CCN1CCO[C@@]2(O)C=CC(=O)C=C12", "relative growth": "inactive: 0.934"}, {"smiles": "C[C@H]1CCCCO[C@H](CN(C)CC2CC2)[C@@H](C)CN([C@@H](C)CO)C(=O)c2cc(NS(C)(=O)=O)ccc2O1", "relative growth": "inactive: 0.906"}, {"smiles": "O=C(NCCN1CCCC1)[C@@H]1[C@@H](CO)[C@@H]2Cn3c(cccc3=O)[C@H]1N2C(=O)c1ccccc1", "relative growth": "inactive: 1.02"}, {"smiles": "COCC#Cc1cnc2c(c1)C(=O)N([C@@H](C)CO)C[C@@H](C)[C@H](CN(C)C(=O)CCN1CCCCC1)O2", "relative growth": "inactive: 1.01"}, {"smiles": "COc1ccc(S(=O)(=O)N(C)C[C@@H]2OCCCC[C@H](C)Oc3ccc(NS(=O)(=O)c4ccc(Cl)cc4)cc3C(=O)N([C@H](C)CO)C[C@@H]2C)cc1", "relative growth": "inactive: 1.03"}, {"smiles": "C[C@H](CO)N1C[C@H](C)[C@H](CN(C)C(=O)Nc2ccc(F)cc2)OCCCC[C@H](C)Oc2ccc(NS(=O)(=O)c3ccc(F)cc3)cc2C1=O", "relative growth": "inactive: 1"}, {"smiles": "C[C@@H]1CCCCO[C@H](CN(C)C)[C@H](C)CN([C@@H](C)CO)C(=O)c2cc(NS(=O)(=O)c3cn(C)cn3)ccc2O1", "relative growth": "inactive: 0.994"}, {"smiles": "C[C@@H]1CN([C@@H](C)CO)C(=O)CCCn2nncc2CO[C@H]1CN(C)C(=O)Nc1cccc(C(F)(F)F)c1", "relative growth": "inactive: 0.985"}, {"smiles": "COC(=O)c1c2oc(c1C(=O)OC)C(=O)N[C@H](Cc1ccccc1)Cn1cc(nn1)[C@@H](Cc1ccccc1)NC(=O)N[C@@H](COC(=O)NCCCCCC(=O)NO)CC2", "relative growth": "inactive: 1.01"}, {"smiles": "C[C@H]1CN([C@@H](C)CO)C(=O)c2cc(NC(=O)Cc3ccccc3)ccc2O[C@@H]1CN(C)S(=O)(=O)c1cccs1", "relative growth": "inactive: 0.993"}, {"smiles": "C[C@H]1CN([C@@H](C)CO)C(=O)c2c(c3ccccc3n2C)-c2ccccc2CO[C@@H]1CN(C)Cc1ccc(-c2ccccc2)cc1", "relative growth": "inactive: 1.03"}, {"smiles": "Nc1ccc(C(=O)N(CCO)CCO)cc1", "relative growth": "inactive: 0.997"}, {"smiles": "C[C@@H]1CN([C@H](C)CO)C(=O)Cc2cc(NC(=O)Nc3cccc4ccccc34)ccc2O[C@@H]1CN(C)Cc1ccc(C(F)(F)F)cc1", "relative growth": "inactive: 1.06"}, {"smiles": "CCCNC(=O)N(C)C[C@H]1Oc2ncc(-c3ccc(C(=O)N(C)C)cc3)cc2C(=O)N([C@H](C)CO)C[C@@H]1C", "relative growth": "inactive: 1.02"}, {"smiles": "c1ccc(-c2n[nH]c3c2CCC3)cc1", "relative growth": "inactive: 0.933"}, {"smiles": "CN(C)CCCNC(=O)C[C@@H]1CC[C@H]2[C@H](COc3ccc(NC(=O)c4ccc5c(c4)OCO5)cc3C(=O)N2C)O1", "relative growth": "inactive: 1.01"}, {"smiles": "C[C@H](CO)N1C[C@H](C)[C@@H](CN(C)Cc2ccc(Oc3ccccc3)cc2)Oc2ccc(NS(=O)(=O)c3ccc(F)cc3)cc2C1=O", "relative growth": "inactive: 0.977"}, {"smiles": "Cc1noc(C)c1NC(=O)Nc1cccc2c1O[C@@H](CN(C)S(=O)(=O)c1cn(C)cn1)[C@@H](C)CN([C@H](C)CO)C2=O", "relative growth": "inactive: 1.04"}, {"smiles": "COc1ccc(S(=O)(=O)N[C@@H]2C=C[C@@H](CC(=O)N3CCN(c4ccccc4)CC3)O[C@@H]2CO)cc1", "relative growth": "inactive: 1.01"}, {"smiles": "CC(C)NC(=O)Nc1ccc2c(c1)C(=O)N([C@@H](C)CO)C[C@@H](C)[C@@H](CN(C)Cc1ccccc1)OCCCC[C@@H](C)O2", "relative growth": "inactive: 1.01"}, {"smiles": "COc1ccccc1NC(=O)N(C)C[C@H]1Oc2ncc(C#CCN(C)C)cc2C(=O)N([C@@H](C)CO)C[C@@H]1C", "relative growth": "inactive: 1.04"}, {"smiles": "C[C@@H]1CN([C@@H](C)CO)S(=O)(=O)c2ccc(Br)cc2O[C@@H]1CN(C)C(=O)c1ccncc1", "relative growth": "inactive: 0.981"}, {"smiles": "Cc1noc(C)c1NC(=O)Nc1ccc2c(c1)C(=O)N([C@H](C)CO)C[C@H](C)[C@@H](CN(C)S(=O)(=O)c1ccc(Cl)cc1)OCCCC[C@H](C)O2", "relative growth": "inactive: 0.988"}, {"smiles": "CC(C)NC(=O)Nc1ccc2c(c1)CC(=O)N([C@@H](C)CO)C[C@H](C)[C@@H](CN(C)S(=O)(=O)c1cn(C)cn1)O2", "relative growth": "inactive: 0.972"}, {"smiles": "CO[C@@H]1CN(C)C(=O)c2cc(NS(=O)(=O)CC(F)(F)F)ccc2OC[C@H](C)N(Cc2cccnc2)C[C@H]1C", "relative growth": "inactive: 0.97"}, {"smiles": "CC(C)(C)OC(=O)N1CCC(N)CC1", "relative growth": "inactive: 0.98"}, {"smiles": "COC(=O)C[C@](O)(CCCC(C)(C)O)C(=O)O[C@@H]1C(OC)=C[C@]23CCCN2CCc2cc4c(cc2[C@H]13)OCO4", "relative growth": "inactive: 1.01"}, {"smiles": "COc1ccc2c3c([nH]c2c1)[C@H](CO)N(C[C@]13CN(CC2CCCCC2)C1)S(=O)(=O)c1cn(cn1)C", "relative growth": "inactive: 0.966"}, {"smiles": "C[C@@H]1CN([C@@H](C)CO)C(=O)c2cc(NS(=O)(=O)c3ccc(Cl)cc3)ccc2O[C@@H]1CN(C)C(=O)Nc1ccc(C(F)(F)F)cc1", "relative growth": "inactive: 0.99"}, {"smiles": "O=C(N1CCCC1)N1CCNCC1", "relative growth": "inactive: 0.978"}, {"smiles": "O=C(COc1ccccc1)N1CCNC1=O", "relative growth": "inactive: 0.995"}, {"smiles": "C[C@H]1CN([C@@H](C)CO)C(=O)Cc2cc(NC(=O)Cc3ccccc3)ccc2O[C@H]1CN(C)S(=O)(=O)c1cccs1", "relative growth": "inactive: 1.01"}, {"smiles": "C[C@H](CO)N1C[C@H](C)[C@@H](CN(C)S(=O)(=O)c2cccs2)Oc2c(NC(=O)CCCN(C)C)cccc2C1=O", "relative growth": "inactive: 0.993"}, {"smiles": "Cn1cnc(-c2cc3nccc(Oc4ccc(NC(=S)NC(=O)Cc5ccccc5)cc4F)c3s2)c1", "relative growth": "inactive: 1.05"}, {"smiles": "O=C(Cc1ccncc1)Nc1ccc2c(c1)[C@H]1C[C@@H](CC(=O)N3CCc4ccccc4C3)O[C@@H](CO)[C@H]1O2", "relative growth": "inactive: 1.03"}, {"smiles": "COc1ccc(S(=O)(=O)Nc2ccc3c(c2)C(=O)N([C@@H](C)CO)C[C@@H](C)[C@H](CN(C)S(=O)(=O)c2cn(C)cn2)O3)cc1", "relative growth": "inactive: 0.978"}, {"smiles": "N[C@@H](c1ccncc1)c1ccc(OCc2ccccc2)cc1", "relative growth": "inactive: 1"}, {"smiles": "C[C@H](CO)N1C[C@H](C)[C@H](CN(C)C(=O)Cc2ccccc2)OCCCC[C@H](C)Oc2ccc(NC(=O)Cc3ccccc3)cc2C1=O", "relative growth": "inactive: 1.01"}]}]}
